Results on 24 molecules are retold here after PubChem BioAssay AID2202238 (Ras Initiative Chemistry Research Team, Frederick National …, 2025).

This is one part of the list. Further columns of the screen follow, without active or inactive calls.

This assay addresses GTPase KRas (Homo sapiens) (UniProt P01116). Put plainly: Covalent labelling of cysteine mutants by fragments, read by mass spectrometry (AID 2202238). The settings on record: KRAS G12D cysteine mutants, disulfide tethering, MALDI-TOF labeling, stronger effect = higher value, fragment at 500 µM. The arrangement: protein at 5 µM with 500 µM competing thiol for 1.5 h.
Chain of UniProt P01116 (P01116 whole entry, looked up, the tested form may be a part): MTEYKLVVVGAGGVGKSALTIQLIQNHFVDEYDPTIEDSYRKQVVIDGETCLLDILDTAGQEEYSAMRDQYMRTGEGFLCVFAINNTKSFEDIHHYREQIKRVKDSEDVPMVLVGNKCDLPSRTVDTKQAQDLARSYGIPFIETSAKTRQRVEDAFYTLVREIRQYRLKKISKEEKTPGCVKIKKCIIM
The mark [1] stands for this setting: measured here: G75C mutant labeling.
Where [2] appears, read: measured here: H94C mutant labeling.
The mark [3] stands for this setting: measured here: I36C mutant labeling.
Where [4] appears, read: measured here: L120C mutant labeling.
The mark [5] stands for this setting: measured here: M67C mutant labeling.
The mark [6] stands for this setting: measured here: M72C mutant labeling.
[7] abbreviates: measured here: N86C mutant labeling.
Where [8] appears, read: measured here: P121C mutant labeling.
The mark [9] stands for this setting: measured here: S122C mutant labeling.
Setting [10] is: measured here: S136C mutant labeling.
The mark [11] stands for this setting: measured here: G60C mutant labeling.
[12] abbreviates: measured here: N26C mutant labeling.

As to `CC(C)Cc1cc(CNC(=O)CCS)no1`, the percent labeling is, setting by setting: under setting [1], 16.5%; under setting [2], 27.5%; under setting [3], 35.1%; under setting [4], 22.9%; under setting [5], 27.9%; under setting [6], 39.7%. Moreover, the percent labeling amounted to 28.4% under setting [7], 31.2% under setting [8], 27.1% under setting [9] and 44.5% under setting [10].

For the molecule `COc1cc2c(c(OC)c1OC)CCN(C(=O)CCS)CC2`, the percent labeling was found to be 15.4% under setting [1]; 36.3% under setting [2]; 32.3% under setting [3]; 32.2% under setting [4]; 44.1% under setting [5]; 28.6% under setting [6]. For the same molecule, the percent labeling by setting is: under setting [7], 39.3%; under setting [8], 32%; under setting [9], 31.3%; under setting [10], 58.7%.

In the case of `O=C(CCS)NCc1nnc(N2CCCC2)o1`, the percent labeling reads like this: under setting [1], 6%; under setting [2], 13.8%; under setting [3], 19.7%; under setting [4], 25.7%; under setting [5], 19.6%; under setting [6], 10.3%. Besides, the percent labeling reads like this: under setting [7], 7.2%; under setting [8], 24.1%; under setting [9], 21.8%; under setting [10], 36.5%.

Take `O=C(CCS)NC1CCN(C(=O)c2ccccc2F)CC1`: the percent labeling is, setting by setting: under setting [1], 13.7%; under setting [2], 40.5%; under setting [3], 50%; under setting [4], 31.8%; under setting [5], 53.4%; under setting [6], 32.4%. Also, the percent labeling runs as follows: under setting [7], 34.4%; under setting [8], 37.7%; under setting [9], 40.5%; under setting [10], 63.8%.

For the molecule `O=C(NCCS)c1cnn(-c2ccc(F)cc2)c1-n1cccc1`, the percent labeling under setting [11] was found to be 33.6%; the percent labeling under setting [1] is 20.4%; the percent labeling under setting [2] is 18.5%; the percent labeling under setting [3] came out at 12.4%; the percent labeling under setting [4] was 20.7%; the percent labeling under setting [5] was determined as 13.3%. For the same molecule, the percent labeling runs as follows: under setting [6], 41.7%; under setting [12], 35.1%; under setting [7], 13.4%; under setting [8], 11.6%; under setting [9], 10.7%; under setting [10], 25%.

With `Cc1cc(C(=O)NCCS)c(C)n1C1CCCOC1` (stereo not drawn), the percent labeling under setting [11] is 13.2%; the percent labeling under setting [1] came to 4.6%; the percent labeling under setting [2] was 15.6%; the percent labeling under setting [3] is 0%; the percent labeling under setting [4] was found to be 16.1%; the percent labeling under setting [5] turned out to be 10.6%. This molecule also registered a percent labeling under setting [6] of 13.6%; a percent labeling under setting [12] of 12.9%; a percent labeling under setting [7] of 8.9%; a percent labeling under setting [8] of 12.5%; a percent labeling under setting [9] of 10.2%; a percent labeling under setting [10] of 16.1%.

`COc1c(Cl)cc(C(=O)NCCS)c2ncccc12`: the percent labeling under setting [11] worked out at 32.2%; the percent labeling under setting [1] turned out to be 30%; the percent labeling under setting [2] was 21.6%; the percent labeling under setting [3] is 9.7%; the percent labeling under setting [4] was 15%; the percent labeling under setting [5] was 14.9%. The percent labeling under setting [6] was determined as 43.1%; the percent labeling under setting [12] turned out to be 30.5%; the percent labeling under setting [7] came out at 7.6%; the percent labeling under setting [8] was 12.9%; the percent labeling under setting [9] amounted to 9.6%; the percent labeling under setting [10] came to 19.3%.

As to `O=C(CCS)NC1CCN(c2ccc(F)cc2)CC1`, the percent labeling runs as follows: under setting [1], 10.8%; under setting [2], 32%; under setting [3], 39.3%; under setting [4], 27.8%; under setting [5], 39.1%; under setting [6], 28.8%. Moreover, the percent labeling under setting [7] is 15.2%, the percent labeling under setting [8] turned out to be 31.7%, the percent labeling under setting [9] was 30.2% and the percent labeling under setting [10] was 49.3%.

`CCc1cc2c(CC(=O)NCCS)csc2s1`: the percent labeling was 36.4% under setting [11]; 16.9% under setting [1]; 20.1% under setting [2]; 10.5% under setting [3]; 19.5% under setting [4]; 13.6% under setting [5]. The percent labeling turned out to be 39.9% under setting [6]; 27% under setting [12]; 15.6% under setting [7]; 16.4% under setting [8]; 5.6% under setting [9]; 19% under setting [10].

Consider `Cc1ccc(C(=O)NCCS)c(F)c1Br`, for which the percent labeling runs as follows: under setting [11], 38.5%; under setting [1], 19.8%; under setting [2], 21.3%; under setting [3], 11.8%; under setting [4], 18%; under setting [5], 16.9%. The percent labeling amounted to 51% under setting [6]; 32.3% under setting [12]; 17.2% under setting [7]; 18.3% under setting [8]; 13.3% under setting [9]; 19.2% under setting [10].

On to `Cc1cc(Oc2ccccc2)ccc1C(=O)NCCS`, for which the percent labeling reads like this: under setting [11], 32.6%; under setting [1], 8.4%; under setting [2], 12.1%; under setting [3], 6.8%; under setting [4], 15.7%; under setting [5], 18.1%. The percent labeling stood at 35.7% under setting [6]; 27.4% under setting [12]; 7.9% under setting [7]; 15.2% under setting [8]; 12.1% under setting [9]; 15.7% under setting [10].

For `CC(=O)N(CCC(=O)NCCS)Cc1ccccc1`, the percent labeling was 37.3% under setting [11]; 12.7% under setting [1]; 34.6% under setting [2]; 29.6% under setting [3]; 46.3% under setting [4]; 40.2% under setting [5]. Further, the percent labeling is, setting by setting: under setting [6], 23.9%; under setting [12], 37.6%; under setting [7], 24.5%; under setting [8], 33.9%; under setting [9], 33.5%; under setting [10], 53%.

`CN(Cc1ccnc2ccccc12)C(=O)CCS`: the percent labeling reads like this: under setting [1], 20.9%; under setting [2], 34%; under setting [3], 38.5%; under setting [4], 29.2%; under setting [5], 40.3%; under setting [6], 40.4%. Besides, the percent labeling is, setting by setting: under setting [7], 32.1%; under setting [8], 37.4%; under setting [9], 17.9%; under setting [10], 58%.

For the molecule `CC(C)(CNC(=O)CCS)c1ccc(F)cn1`, the percent labeling reads like this: under setting [1], 10.2%; under setting [2], 30.7%; under setting [3], 37.9%; under setting [4], 25%; under setting [5], 33%; under setting [6], 21.5%. The percent labeling reads like this: under setting [7], 21.4%; under setting [8], 33.2%; under setting [9], 33%; under setting [10], 48.3%.

On to `Cc1cc(NC(=O)CCS)c(C#N)cc1N(C)C`, for which the percent labeling runs as follows: under setting [1], 22.5%; under setting [2], 27%; under setting [3], 38.9%; under setting [4], 30%; under setting [5], 39.2%; under setting [6], 48.5%. Also, the percent labeling is, setting by setting: under setting [7], 36.5%; under setting [8], 29.6%; under setting [9], 22.7%; under setting [10], 51.9%.

Take `Cc1cccc(C(=O)NC2CC(NC(=O)CCS)C2)n1` (stereo not drawn): the percent labeling was determined as 10.6% under setting [1]; 30.8% under setting [2]; 41.4% under setting [3]; 34.1% under setting [4]; 39.2% under setting [5]; 18.1% under setting [6]. For the same molecule, the percent labeling was found to be 29.9% under setting [7], 34.6% under setting [8], 37.4% under setting [9] and 49.6% under setting [10].

As for `O=C(CCS)Nc1cn[nH]c1-c1ccccn1`, the percent labeling was found to be 40.6% under setting [1]; 27.9% under setting [2]; 24.1% under setting [3]; 15.9% under setting [4]; 29.3% under setting [5]; 48% under setting [6]. The same molecule showed a percent labeling under setting [7] of 13.9%, a percent labeling under setting [8] of 17.8%, a percent labeling under setting [9] of 25.4% and a percent labeling under setting [10] of 37.1%.

`O=C(CCS)NCCn1ccc(-c2ccccc2)n1` registered a percent labeling under setting [1] of 13.8%; a percent labeling under setting [2] of 41.2%; a percent labeling under setting [3] of 38.9%; a percent labeling under setting [4] of 37.2%; a percent labeling under setting [5] of 44.9%; a percent labeling under setting [6] of 34.1%. The percent labeling is, setting by setting: under setting [7], 22.3%; under setting [8], 35.3%; under setting [9], 32%; under setting [10], 54.7%.

For the molecule `Cc1nn(C)c(N2CCN(C(=O)CCS)CC2)c1C#N`, the percent labeling was 17.9% under setting [1]; 33.3% under setting [2]; 43.5% under setting [3]; 31.9% under setting [4]; 52.3% under setting [5]; 33.8% under setting [6]. The percent labeling by setting is: under setting [7], 31%; under setting [8], 35%; under setting [9], 34.4%; under setting [10], 67.5%.

For `CC(C)c1ccc(NC(=O)CCS)cc1C(F)(F)F`, the percent labeling was determined as 15.3% under setting [1]; 21.2% under setting [2]; 17.8% under setting [3]; 26.5% under setting [4]; 14.7% under setting [5]; 42.6% under setting [6]. Also, the percent labeling runs as follows: under setting [7], 18.7%; under setting [8], 14.3%; under setting [9], 11.3%; under setting [10], 45.4%.

`Cc1nc(-c2ccncc2)[nH]c(=O)c1CCC(=O)NCCS` yielded a percent labeling under setting [11] of 28.1%; a percent labeling under setting [1] of 7.9%; a percent labeling under setting [2] of 23.8%; a percent labeling under setting [3] of 22.5%; a percent labeling under setting [4] of 24.5%; a percent labeling under setting [5] of 29.9%. The percent labeling is, setting by setting: under setting [6], 10.7%; under setting [12], 34.1%; under setting [7], 23.7%; under setting [8], 26.4%; under setting [9], 26.6%; under setting [10], 29.1%.

Turning to `Cn1ccc(C(=O)NCCS)c1-c1ccccc1`, the percent labeling is, setting by setting: under setting [11], 54.1%; under setting [1], 17.6%; under setting [2], 51.6%; under setting [3], 18.5%; under setting [4], 43%; under setting [5], 30.3%. Further, the percent labeling reads like this: under setting [6], 38.1%; under setting [12], 36.4%; under setting [7], 21.8%; under setting [8], 21.7%; under setting [9], 23.2%; under setting [10], 44.1%.

Take `COc1ccc2c(n1)N(C)CCN2C(=O)CCS`: the percent labeling under setting [1] came to 11.7%; the percent labeling under setting [2] stood at 28.2%; the percent labeling under setting [3] worked out at 27.8%; the percent labeling under setting [4] was 14.1%; the percent labeling under setting [5] was found to be 30.5%; the percent labeling under setting [6] was 28.7%. Also, the percent labeling under setting [7] turned out to be 26%, the percent labeling under setting [8] stood at 19.8%, the percent labeling under setting [9] came to 21.6% and the percent labeling under setting [10] was determined as 40.6%.

With `O=C(CCS)N1CC(Oc2cccc(F)c2)C1`, the percent labeling was found to be 24.5% under setting [1]; 28% under setting [2]; 28.1% under setting [3]; 25.6% under setting [4]; 51.6% under setting [5]; 43.3% under setting [6]. In addition, the percent labeling stood at 20.3% under setting [7], 32.8% under setting [8], 26% under setting [9] and 44.7% under setting [10].
